Test results: patent publication US20250214977A1, “STAT6 INHIBITORS AND USES THEREOF” (Kymera Therapeutics, Inc., priority 2024, published 2025)

Molecular target: T1, biotinylated truncated STAT6 (123-632)-avi (Homo sapiens, UniProt P42226)
T1 sequence (P42226 123-632 limits assumed): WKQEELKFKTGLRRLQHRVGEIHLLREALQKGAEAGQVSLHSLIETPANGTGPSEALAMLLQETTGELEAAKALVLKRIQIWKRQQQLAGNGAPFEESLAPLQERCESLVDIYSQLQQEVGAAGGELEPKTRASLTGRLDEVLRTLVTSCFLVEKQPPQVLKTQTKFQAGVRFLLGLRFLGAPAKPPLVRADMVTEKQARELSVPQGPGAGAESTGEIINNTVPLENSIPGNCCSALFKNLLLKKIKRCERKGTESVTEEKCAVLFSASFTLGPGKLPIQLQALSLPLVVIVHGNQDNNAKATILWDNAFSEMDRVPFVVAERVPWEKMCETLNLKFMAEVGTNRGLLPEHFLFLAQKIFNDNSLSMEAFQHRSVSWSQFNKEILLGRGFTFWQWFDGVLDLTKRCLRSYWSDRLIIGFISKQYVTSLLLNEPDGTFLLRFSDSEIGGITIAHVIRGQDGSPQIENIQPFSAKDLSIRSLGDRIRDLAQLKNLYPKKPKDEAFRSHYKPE
Assay: Homogenous Time-Resolved Fluorescence (HTRF) binding assay
Details: 0.15 nM biotinylated truncated STAT6 (123-632)-avi, 20 nM fluorescein-labeled probe

Row | Structure (SMILES) | IC50 (30 minutes at room temperature) | IC50 (30 minutes room temperature)
1 | COc1cc(F)cnc1N1CCN(C(=O)c2cc3c(-c4ccc(CN5CCOCC5)nc4)cc(C4=CCCN(C(=O)CCn5ccnn5)C4)c(F)c3[nH]2)CC1 [Example I-1137] | < 100 nM | –
2 | COc1cccnc1N1CCN(C(=O)c2cc3c(-c4ccc(C#N)cn4)cc(C4=CCCN(C(=O)CCn5ccnn5)C4)c(F)c3[nH]2)CC1 [Example I-575] | < 100 nM | –
3 | COc1ccccc1-c1cc(C2=CCCN(C(=O)CCn3ccnn3)C2)c(F)c2cc(C(C)(C)O)oc12 [Example I-1556] | – | 1000 to 10000 nM
4 | CN(C)C(=O)c1cc2ccc(C3=CCCN(C(=O)C4Cc5ccccc5CN4C=O)C3)cc2[nH]1 (stereo not drawn) [Example I-202] | 100 to 1000 nM | –
5 | COc1ccccc1-c1cc(C2=CCCN(C(=O)CCn3ccnn3)C2)c(F)c2[nH]c(C(=O)N3CCN(CC4CCCO4)CC3)cc12 (stereo not drawn) [Example I-1184] | < 100 nM | –
6 | CCC1=C(c2cc(C3=CCCN(C(=O)CCn4ccnn4)C3)c(F)c3[nH]c(C(=O)N4CCN(c5ncc(F)cc5OC)CC4)cc23)CN(C)C1 [Example I-782] | < 100 nM | –
7 | COc1ccccc1-c1cc(C2=CCCN(C(=O)CCn3ccnn3)C2)c(F)c2[nH]c(C(=O)N3CCN(c4ncccn4)C[C@@H]3C)cc12 [Example I-995] | < 100 nM | –
8 | COc1ccncc1-c1cc(C2=CCCN(C(=O)CCn3ccnn3)C2)c(F)c2[nH]c(C(=O)N3CCN(c4ncc(C(C)C)cc4OC)CC3)cc12 [Example I-454] | < 100 nM | –
9 | CCn1ncc2c1CN(C(=O)c1cc3c(-c4cnc(C5CC5)cc4C)cc(C4=CCCN(C(=O)CCn5ccnn5)C4)c(F)c3[nH]1)C2 [Example I-766] | > 100000 nM | –
10 | O=C(CCn1ccnn1)N1CCC=C(c2c[nH]c3cc(-n4ccccc4=O)ccc23)C1 [Example I-277] | 1000 to 10000 nM | –
11 | CCc1ccc(-c2cc(C(=O)N3CCN(c4ncc(F)cc4OC)CC3)cc3cc(C4=CCCN(C(=O)C5CC5C(=O)O)C4)n(CC4CC4)c23)c(C)n1 (stereo not drawn) [Example I-550] | > 100000 nM | –
12 | CCc1cc(C)ncc1-c1cc(C2=CCCN(C(=O)CCn3cccn3)C2)c(F)c2[nH]c(C(=O)N3CCN(c4cc(C)ccc4OC)CC3)cc12 [Example I-515] | < 100 nM | –
13 | CN(C)C(=O)c1cc2ccc(C3=CCCN(C(=O)C4CC(=O)N(Cc5ccccc5)C4)C3)cc2[nH]1 (stereo not drawn) [Example I-88] | 10000 to 100000 nM | –
14 | COc1cc(F)cnc1N1CCN(C(=O)c2cc3c(-c4cccc(C)c4)cc(C4=CCCN(C(=O)CCn5ccnn5)C4)c(F)c3[nH]2)CC1 [Example I-673] | < 100 nM | –
15 | COc1ccncc1-c1cc(C2=CCCN(C(=O)CCn3ccnn3)C2)c(F)c2[nH]c(C(=O)N3CC=C(c4ncc(F)cc4OC)CC3)cc12 [Example I-442] | < 100 nM | –
16 | COc1ccccc1-c1cc(C2=CCCN(C(=O)CCn3ccnn3)C2)c(F)c2[nH]c(C(=O)N3CCN(c4ccn5ncc(C#N)c5n4)CC3)cc12 [Example I-1460] | – | < 100 nM
17 | COc1cnccc1-c1cc(C2=CCCN(C(=O)CCn3ccnn3)C2)c(F)c2[nH]c(C(=O)N(C)C)cc12 [Example I-1653] | – | < 100 nM
18 | COc1ccccc1-c1cc(C2=CCCN(C(=O)CCn3ccnn3)C2)c(F)c2[nH]c(C(=O)N3CCC(c4cccnc4C)CC3)cc12 [Example I-1002] | < 100 nM | –
19 | COc1ccc(NC(=O)c2cc3c(-c4ccccc4OC)cc(C4=CCCN(C(=O)CCn5ccnn5)C4)c(F)c3[nH]2)cn1 [Example I-979] | 100 to 1000 nM | –
20 | COc1cccnc1N1CCN(C(=O)c2cc3c(-c4cccc5ccccc45)cc(C4=CCCN(C(=O)CCn5ccnn5)C4)c(F)c3[nH]2)CC1 [Example I-397] | < 100 nM | –
21 | CN(C)C(=O)c1cc2ccc([C@H]3CCCN(C(=O)CCn4ccnn4)C3)c(F)c2[nH]1 (single isomer, unassigned) [Example I-1187] | < 100 nM | –

Row | Structure (SMILES) | IC50 (30 minutes at room temperature) | IC50 (30 minutes room temperature)
22 | CCc1ccc(-c2cc(-n3c(C)nn(C)c3=O)cc3cc(C4=CCCN(C(=O)CCn5ccnn5)C4)sc23)c(C)n1 [Example I-1327] | – | 100 to 1000 nM
23 | CN(C)C(=O)c1cc2ccc(C3=CCCN(C(=O)c4ccccc4CSc4ccccc4)C3)cc2[nH]1 [Example I-92] | 10000 to 100000 nM | –
24 | CCn1ccnc1-c1cc(C2=CCCN(C(=O)CCn3ccnn3)C2)c(F)c2[nH]c(C(=O)N3Cc4cnn(CC)c4C3)cc12 [Example I-1220] | – | < 100 nM
25 | COc1ccccc1-c1cc(C2=CCCN(C(=O)CCn3ccnn3)C2)c(F)c2[nH]c(C(=O)N3CCN(c4cc(C#N)ccn4)CC3)cc12 [Example I-875] | < 100 nM | –
26 | CN(C)C(=O)c1cc2ccc(C3=CCCN(C(=O)COc4ccc(C(=O)O)cc4)C3)cc2[nH]1 [Example I-67] | 10000 to 100000 nM | –
27 | CCc1nc(C)ccc1-c1cc(C(=O)N2CCN(c3ncc(F)cc3OC)CC2)cc2cc(C3=CCCN(C(=O)CC(=O)O)C3)n(CC)c12 [Example I-794] | < 100 nM | –
28 | COc1ccccc1-c1cc(C2=CCCN(C(=O)CCn3ccnn3)C2)c(F)c2[nH]c(C(=O)N3CCN(C(N)=O)CC3)cc12 [Example I-1521] | – | < 100 nM
29 | CN(C)C(=O)c1cc2cc(C3=CCCN(C(=O)Cn4cccn4)C3)ccc2o1 [Example I-261] | 10000 to 100000 nM | –
30 | COc1ccccc1-c1cc(C2=CCCN(C(=O)CCn3ccnn3)C2)c(F)c2[nH]c(C(=O)N3CCN(c4ccc[nH]c4=O)CC3)cc12 [Example I-1003] | < 100 nM | –
31 | COc1ccccc1-c1cc(C2=CCCN(C(=O)CCn3ccnn3)C2)c(F)c2[nH]c(C(=O)N3CC(C)CC3CO)cc12 (stereo not drawn) [Example I-1595] | – | 100 to 1000 nM
32 | COc1ccccc1-c1cc(C2=CCCN(C(=O)CCn3ccnn3)C2)c(F)c2[nH]c(C(=O)N3CCN(c4[nH]ncc4OC)CC3)cc12 [Example I-508] | < 100 nM | –
33 | Cc1ccc(-c2cc(C3=CCCN(C(=O)CCn4ccnn4)C3)cc3cc(C(=O)N(C)C)oc23)nc1 [Example I-1516] | – | 100 to 1000 nM
34 | COc1ccccc1-c1cc(C2=CCCN(C(=O)CCn3ccnn3)C2)c(F)c2[nH]c(C(=O)N3CCN(c4ncccc4C4CC4)CC3)cc12 [Example I-495] | > 100000 nM | –
35 | CN(C)C(=O)c1cc2cc(C3=CCCN(C(=O)C4Cc5c(cccc5-c5ccc(O)cc5)CN4C=O)C3)ccc2o1 (stereo not drawn) [Example I-187] | 10000 to 100000 nM | –
36 | CCCOc1ncc(C)cc1-c1cc(C2=CCCN(C(=O)CCn3ccnn3)C2)c(F)c2[nH]c(C(=O)N3CCN(c4ncc(F)cc4OC)CC3)cc12 [Example I-654] | < 100 nM | –
37 | CCc1nc(C)ccc1-c1cc(C(=O)N2CCN(c3ncc(F)cc3OC)CC2)cc2cc(C3=CCCN(C(=O)C(=O)O)C3)n(CC3CC3)c12 [Example I-1228, 2-(3-(1-(cyclopropylmethyl)-7-(2-ethyl-6-methylpyridin-3-yl)-5-(4-(5-fluoro-3-methoxypyridin-2-yl)piperazine-1-carbonyl)-1H-indol-2-yl)-5,6-dihydropyridin-1(2H)-yl)-2-oxoacetic acid] | – | < 100 nM
38 | CN(C)C(=O)c1cc2cc(C3=CCCN(C(=O)C(Cn4ccnn4)c4ccn(C)n4)C3)ccc2o1 (stereo not drawn) [Example I-1648] | – | 1000 to 10000 nM
39 | CN(C)C(=O)c1cc2ccc(C3=CCCN(C(=O)C4(O)CCCC4)C3)cc2[nH]1 [Example I-32] | 10000 to 100000 nM | –
40 | COc1ccccc1-c1cc(C2=CCCN(C(=O)CCn3ccnn3)C2)c(F)c2[nH]c(C(=O)N3CCN(c4cn(C)cn4)CC3)cc12 [Example I-1368] | – | < 100 nM
41 | COc1ccccc1-c1cc(C2=CCCN(C(=O)CCn3ccnn3)C2)c(F)c2[nH]c(C(=O)N3CCN(c4ncccc4OC4CC4)CC3)cc12 [Example I-336] | < 100 nM | –
42 | CCn1nccc1-c1cc(C2=CCCN(C(C)=O)C2)c(F)c2[nH]c(C(=O)N3Cc4cnn(CC)c4C3)cc12 [Example I-1176] | < 100 nM | –
